“And” between values parts separate entries of the source, which are not always exact repeats. Equal values may be shown once. Inconclusive results, whose numbers are uncertain, are shown with a selection of clear calls. For some assays here: A potency beside an inconclusive call is a rough fit, not a confirmed value. Some compounds were tested as several samples or in several runs, with calls that do not always agree. The source made the active and inactive calls. Unless noted, calls follow the shape of the dose curve; as a rule, active = well fitted curve in the direction sought with a large enough effect in the repeat runs; inconclusive = weak or mixed curves; inactive = no such curve, though single readings can be large; an effect the other way counts as inactive or inconclusive.
Tests used:
[1] = target: Aryl hydrocarbon receptor (Homo sapiens) (UniProt P35869); test: qHTS assay to identify small molecule that activate the aryl hydrocarbon receptor (AhR) signaling pathway (AID 743085); also: nearly all actives have a fitted effect of over 15% in size; also: potency is read from the fitted curve at half-maximal effect
Chain of UniProt P35869 (P35869 whole entry, looked up): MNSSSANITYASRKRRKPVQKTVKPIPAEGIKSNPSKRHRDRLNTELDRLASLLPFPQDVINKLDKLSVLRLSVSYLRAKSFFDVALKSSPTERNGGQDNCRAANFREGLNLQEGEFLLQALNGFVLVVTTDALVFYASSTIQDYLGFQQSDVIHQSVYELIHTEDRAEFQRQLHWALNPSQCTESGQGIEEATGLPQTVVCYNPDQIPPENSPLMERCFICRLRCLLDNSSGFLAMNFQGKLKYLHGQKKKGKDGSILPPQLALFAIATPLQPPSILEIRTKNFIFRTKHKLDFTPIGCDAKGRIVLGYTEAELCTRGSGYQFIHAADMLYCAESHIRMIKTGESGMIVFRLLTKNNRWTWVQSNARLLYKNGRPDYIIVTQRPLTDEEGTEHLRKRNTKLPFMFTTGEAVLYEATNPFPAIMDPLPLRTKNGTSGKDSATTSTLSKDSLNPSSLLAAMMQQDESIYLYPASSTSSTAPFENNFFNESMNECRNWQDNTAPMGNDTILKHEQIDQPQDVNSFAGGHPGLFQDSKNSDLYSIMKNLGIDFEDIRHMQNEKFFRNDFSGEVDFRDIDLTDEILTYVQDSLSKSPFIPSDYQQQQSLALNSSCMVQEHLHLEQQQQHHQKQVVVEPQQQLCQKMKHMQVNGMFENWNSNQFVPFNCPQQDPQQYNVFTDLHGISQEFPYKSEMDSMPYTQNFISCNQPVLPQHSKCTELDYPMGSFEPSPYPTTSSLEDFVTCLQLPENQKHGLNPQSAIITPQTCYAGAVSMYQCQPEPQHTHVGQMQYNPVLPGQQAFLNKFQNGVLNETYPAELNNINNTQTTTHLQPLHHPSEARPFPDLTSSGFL
Outline: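 Luminescence (ONE-Glo) from a dioxin-responsive-element luciferase reporter in HG2L7.5c1 HepG2 cells after 24 hr compound exposure at 37C; viability measured by CellTiter-Fluor fluorescence beforehand.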

[2] = target: Peroxisome proliferator-activated receptor gamma (Homo sapiens) (UniProt P37231); test: qHTS assay to identify small molecule agonists of the peroxisome proliferator-activated receptor gamma (PPARg) signaling pathway (AID 743094; active = well fitted activation curve with a large enough effect in the signal ratio in the repeat runs, not every such curve was filed as active; inconclusive = weak or mixed curves, or effect the other way; inactive = no such curve, though single readings can be large or run the other way; the % refers to the signal ratio; also: % is scaled to controls: 0 for no effect and ±100 for the full control effect); details: HEK293H PPARg-UAS-bla, beta-lactamase FRET ratio, 17 h; activation: at 57 µM (top of the series) unless noted
Chain of UniProt P37231 (P37231 whole entry, looked up): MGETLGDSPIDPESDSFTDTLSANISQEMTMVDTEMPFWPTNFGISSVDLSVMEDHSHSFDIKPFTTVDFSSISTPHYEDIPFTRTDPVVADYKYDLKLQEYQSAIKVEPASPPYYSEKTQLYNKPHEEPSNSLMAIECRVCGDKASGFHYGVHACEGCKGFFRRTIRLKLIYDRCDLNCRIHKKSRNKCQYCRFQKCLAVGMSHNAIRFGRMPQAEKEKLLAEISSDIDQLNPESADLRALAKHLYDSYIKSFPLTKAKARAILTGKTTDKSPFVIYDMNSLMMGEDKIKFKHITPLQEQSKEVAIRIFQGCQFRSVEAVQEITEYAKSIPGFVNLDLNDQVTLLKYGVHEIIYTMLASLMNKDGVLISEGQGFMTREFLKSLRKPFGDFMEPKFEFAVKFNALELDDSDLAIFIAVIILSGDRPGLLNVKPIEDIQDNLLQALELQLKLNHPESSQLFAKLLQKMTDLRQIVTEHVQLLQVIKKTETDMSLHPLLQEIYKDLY
Outline: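 GeneBLAzer PPARg UAS-bla HEK293H cells carrying a stably integrated beta-lactamase reporter were pre-incubated 5 h at 37C, then exposed to compounds in DMSO for 17 h at 37C; LiveBLAzer B/G FRET substrate was added for 1 h at room temperature and fluorescence read.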

[3] = target: Peroxisome proliferator-activated receptor gamma (Homo sapiens) (UniProt P37231); test: qHTS assay to identify small molecule antagonists of the peroxisome proliferator-activated receptor gamma (PPARg) signaling pathway (AID 743191; calls by dose curve; also: nearly all actives have a fitted effect of over 30% in size; also: potency is read from the fitted curve at half-maximal effect); details: HEK293H PPARg-UAS-bla, beta-lactamase ratio, antagonist, 17 h; ratio activity, negative = inhibition: at 62.6 µM (top of the series) unless noted
Outline: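 GeneBLAzer PPARg UAS-bla HEK293H cells, 5 h post-plating, exposed to compounds 17 h at 37C. LiveBLAzer B/G FRET substrate added for 1 h at room temperature; beta-lactamase reporter read by fluorescence intensity.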

[4] = qHTS assay to identify small molecule antagonists of the peroxisome proliferator-activated receptor gamma (PPARg) signaling pathway - cell viability counter screen (AID 743194); details: PPARg-bla HEK293H viability, CellTiter-Glo luminescence, 17 h, co-treated with 50 nM rosiglitazone; activity change, negative = cytotoxicity: at 62.6 µM (top of the series) unless noted; also: potency is read from the fitted curve at half-maximal effect; nearly all actives have a fitted effect of over 55% in size
Outline: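 Cytotoxicity counter screen in PPARg-bla HEK293H cells, same wells as reporter assay. Compounds plus 50 nM rosiglitazone (final) for 17 h at 37 C, then viability read by CellTiter-Glo luminescence.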

[5] = qHTS assay for small molecule agonists of the antioxidant response element (ARE) signaling pathway (AID 743202; active = well fitted activation curve with a large enough effect in the signal ratio in the repeat runs, not every such curve was filed as active; inconclusive = weak or mixed curves, or effect the other way; inactive = no such curve, though single readings can be large or run the other way; the % refers to the signal ratio; also: potency is read from the fitted curve at half-maximal effect); details: HepG2 ARE-bla reporter, beta-lactamase FRET, 16 h; activation: at 73.3 µM (top of the series) unless noted
Outline: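 Agonist mode reporter screen: HepG2 cells with ARE-controlled beta-lactamase are incubated with test compounds for 16 h at 37 C, and beta-lactamase activity is measured as fluorescence of cleaved B/G FRET substrate.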

[6] = qHTS assay for small molecule agonists of the antioxidant response element (ARE) signaling pathway - cell viability counter screen (AID 743203; calls by dose curve; also: % is scaled to controls: 0 for no effect and ±100 for the full control effect; nearly all actives have a fitted effect of over 55% in size); details: ARE-bla HepG2 viability, CellTiter-Glo luminescence, 16 h; viability change, negative = cytotoxic: at 73.3 µM (top of the series)
Outline: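 CellSensor ARE-bla HepG2 cells, 2,000 per well, rested 5 hrs at 37C/5% CO2, then exposed to compound in DMSO for 16 hrs; viability read as CellTiter-Glo luminescence after 30 min at room temperature, in the reporter wells.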

[7] = target: Vitamin D3 receptor (Homo sapiens) (UniProt P11473); test: qHTS assay to identify small molecule antagonists of the vitamin D receptor (VDR) signaling pathway (AID 743223; active = well fitted inhibition curve with a large enough effect in the signal ratio in the repeat runs, not every such curve was filed as active; inconclusive = weak or mixed curves, or effect the other way; inactive = no such curve, though single readings can be large or run the other way; the % refers to the signal ratio; also: potency is read from the fitted curve at half-maximal effect); details: VDR-UAS-bla HEK293T, beta-lactamase FRET ratio, 16 h; activity change, negative = inhibition: at 61 µM (top of the series) unless noted
Chain of UniProt P11473 (P11473 whole entry, looked up): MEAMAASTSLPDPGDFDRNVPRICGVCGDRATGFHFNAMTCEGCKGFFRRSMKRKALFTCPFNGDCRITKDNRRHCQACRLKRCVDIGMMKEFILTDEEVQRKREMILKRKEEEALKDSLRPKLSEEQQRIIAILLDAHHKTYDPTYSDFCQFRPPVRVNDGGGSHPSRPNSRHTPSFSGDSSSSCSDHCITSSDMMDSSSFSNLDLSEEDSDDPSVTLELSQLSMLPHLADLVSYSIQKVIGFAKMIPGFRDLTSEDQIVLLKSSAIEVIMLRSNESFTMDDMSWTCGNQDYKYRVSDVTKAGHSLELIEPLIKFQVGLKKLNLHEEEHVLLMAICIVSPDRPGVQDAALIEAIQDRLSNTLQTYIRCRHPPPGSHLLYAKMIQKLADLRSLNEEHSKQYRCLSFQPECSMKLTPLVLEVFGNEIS
Outline: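 Antagonist mode: compound added to VDR-bla cells alongside agonist 1alpha,25-dihydroxyvitamin D3 (3 nM final), incubation 16 h at 37C. Read-out is LiveBLAzer FRET fluorescence, 2 h at room temperature.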

[8] = qHTS assay to identify small molecule agonists of the peroxisome proliferator-activated receptor delta (PPARd) signaling pathway - cell viability counter screen (AID 743211); details: PPARd-bla HEK293H viability, CellTiter-Glo luminescence, 17 h; activity change, negative = cytotoxicity: at 62.6 µM (top of the series) unless noted; also: potency is read from the fitted curve at half-maximal effect; nearly all actives have a fitted effect of over 55% in size
Outline: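 Viability was measured as CellTiter-Glo luminescence (30 min, room temperature) in the same wells as the beta-lactamase readout. GeneBLAzer PPARd UAS-bla HEK293H cells received compound after 5 h plating and were incubated 17 h at 37 C.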

[9] = target: Bile acid receptor (Homo sapiens) (UniProt Q96RI1); test: qHTS assay to identify small molecule antagonists of the farnesoid-X-receptor (FXR) signaling pathway (AID 743217; active = well fitted inhibition curve with a large enough effect in the signal ratio in the repeat runs, not every such curve was filed as active; inconclusive = weak or mixed curves, or effect the other way; inactive = no such curve, though single readings can be large or run the other way; the % refers to the signal ratio; also: % is scaled to controls: 0 for no effect and ±100 for the full control effect); details: HEK293T FXR-UAS-bla, beta-lactamase ratio, CDCA-stimulated, 16 h; activity change, negative = inhibition: at 62.6 µM (top of the series) unless noted
Chain of UniProt Q96RI1 (Q96RI1 whole entry, looked up): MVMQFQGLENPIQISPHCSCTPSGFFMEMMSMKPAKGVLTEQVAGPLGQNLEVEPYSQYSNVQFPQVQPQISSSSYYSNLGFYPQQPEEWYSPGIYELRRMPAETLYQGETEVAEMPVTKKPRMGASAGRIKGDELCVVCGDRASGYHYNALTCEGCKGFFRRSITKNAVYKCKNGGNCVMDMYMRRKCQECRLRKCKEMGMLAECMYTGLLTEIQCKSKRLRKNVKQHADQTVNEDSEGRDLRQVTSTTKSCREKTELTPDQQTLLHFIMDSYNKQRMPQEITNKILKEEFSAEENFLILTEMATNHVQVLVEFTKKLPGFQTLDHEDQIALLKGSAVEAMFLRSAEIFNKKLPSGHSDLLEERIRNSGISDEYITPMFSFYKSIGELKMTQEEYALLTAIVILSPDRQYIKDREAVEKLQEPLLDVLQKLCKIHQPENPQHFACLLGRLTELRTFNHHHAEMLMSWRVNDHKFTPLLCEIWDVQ
Outline: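 FXR-UAS-bla HEK 293T cells pre-incubated 5 h at 37 °C, then exposed to compounds with chenodeoxycholic acid (50 uM final) for 16 h at 37 °C. Beta-lactamase reporter read by LiveBLAzer B/G FRET substrate fluorescence after 2 h at room temperature.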

[10] = qHTS assay to identify small molecule agonists of the farnesoid-X-receptor (FXR) signaling pathway - cell viability counter screen (AID 743218); details: FXR-bla HEK293T viability, CellTiter-Glo luminescence, 16 h; viability change, negative = cytotoxic: at 62.6 µM (top of the series) unless noted; also: potency is read from the fitted curve at half-maximal effect; nearly all actives have a fitted effect of over 45% in size
Outline: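 FXR-UAS-bla HEK 293T cells, plated 5 h at 37 C, were exposed to compounds for 16 h at 37 C. CellTiter-Glo was then added to the same wells as the bla readout; luminescence read after 30 min at room temperature.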

[11] = target: Bile acid receptor (Homo sapiens) (UniProt Q96RI1); test: qHTS assay to identify small molecule agonists of the farnesoid-X-receptor (FXR) signaling pathway (AID 743220; active = well fitted activation curve with a large enough effect in the signal ratio in the repeat runs, not every such curve was filed as active; inconclusive = weak or mixed curves, or effect the other way; the % refers to the signal ratio; also: % is scaled to controls: 0 for no effect and ±100 for the full control effect); details: HEK293T FXR-UAS-bla, beta-lactamase FRET ratio, 16 h; activation: at 62.6 µM (top of the series) unless noted
Outline: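 Beta-lactamase reporter under UAS control in GeneBLAzer FXR HEK 293T cells (5000/well) measured with LiveBLAzer FRET substrate after 2 h at room temperature. Compound exposure lasted 16 h at 37C.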

[12] = target: Vitamin D3 receptor (Homo sapiens) (UniProt P11473); test: qHTS assay to identify small molecule agonists of the vitamin D receptor (VDR) signaling pathway (AID 743222; calls by dose curve; also: potency is read from the fitted curve at half-maximal effect); details: HEK293T VDR-UAS-bla, beta-lactamase FRET ratio, 16 h; activation: at 63.5 µM (top of the series) unless noted
Outline: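 VDR-bla cells were plated 4 h at 37C/5% CO2, then exposed to compounds in DMSO for 16 h. After LiveBLAzer B/G FRET substrate addition and 2 h at room temperature, beta-lactamase reporter fluorescence was read.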

[13] = qHTS assay for small molecule activators of the heat shock response signaling pathway (AID 743210; active = well fitted activation curve with a large enough effect in the signal ratio in the repeat runs, with a control signal flat, not every such curve was filed as active; inconclusive = weak or mixed curves; the % refers to the signal ratio; also: potency is read from the fitted curve at half-maximal effect); details: HeLa HSE-bla reporter, beta-lactamase ratio, 5 h; activation: at 62.6 µM (top of the series) unless noted
Outline: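 Quantitative high-throughput format using an engineered HeLa line in which heat shock response elements drive beta-lactamase; after 5 h with compound, cells received a B/G FRET substrate and fluorescence was read.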

[14] = target: Peroxisome proliferator-activated receptor delta (Homo sapiens) (UniProt Q03181); test: qHTS assay to identify small molecule antagonists of the peroxisome proliferator-activated receptor delta (PPARd) signaling pathway (AID 743215; active = well fitted inhibition curve with a large enough effect in the signal ratio in the repeat runs, not every such curve was filed as active; inconclusive = weak or mixed curves, or effect the other way; inactive = no such curve, though single readings can be large or run the other way; the % refers to the signal ratio;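 also: cells stimulated with agonist L165041 at 300 nM final during compound exposure; % is scaled to controls: 0 for no effect and ±100 for the full control effect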); details: HEK293H PPARd-UAS-bla, beta-lactamase FRET ratio, antagonist, 17 h; ratio activity, negative = inhibition: at 62 µM (top of the series) unless noted
Chain of UniProt Q03181 (Q03181 whole entry, looked up): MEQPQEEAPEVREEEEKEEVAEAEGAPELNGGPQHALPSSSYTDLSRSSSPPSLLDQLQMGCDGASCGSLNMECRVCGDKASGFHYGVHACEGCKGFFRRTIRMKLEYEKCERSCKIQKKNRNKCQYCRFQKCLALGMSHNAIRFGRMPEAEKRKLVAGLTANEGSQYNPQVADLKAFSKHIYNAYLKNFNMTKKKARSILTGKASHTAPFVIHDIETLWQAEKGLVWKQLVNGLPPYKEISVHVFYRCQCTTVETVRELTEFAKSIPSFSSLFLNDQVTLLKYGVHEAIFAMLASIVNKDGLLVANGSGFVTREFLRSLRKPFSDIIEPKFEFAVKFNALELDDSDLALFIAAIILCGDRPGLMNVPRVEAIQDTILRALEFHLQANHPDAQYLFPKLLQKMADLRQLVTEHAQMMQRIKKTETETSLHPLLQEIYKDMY
Outline: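 PPARd UAS-bla HEK293H cells were pre-incubated 5 h at 37 C, then given test compounds in DMSO plus agonist L165041 (300 nM final). After 17 h at 37 C, beta-lactamase FRET substrate was added; fluorescence read after 2 h at room temperature.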
Tags tell the direction and shape of the fitted curve or compound fluorescence and quenching.

CC1COc2ccccc2N1C(=O)C(Cl)Cl (stereo unspecified)
Potency [1]: active: 17.2 µM and inactive | activation [2]: inconclusive: -16.2% and inconclusive: -14.8% | Potency [3]: active: 24.5 µM and inconclusive: 12.3 µM [inhibitor, full curve] | Potency [4]: inconclusive: 21.8 µM [cytotoxic, single point] | Potency [5]: active: 19.3 µM and active: 27.3 µM | Potency [6]: inactive | Potency [7]: inconclusive: 4.89 µM [inhibitor, full curve] and inconclusive: 13.8 µM [fluorescent, full curve, poor fit]

C1=CC2C3C=CC(C3)C2C1 (stereo unspecified)
Potency [1]: inconclusive: 21.7 µM [activator, partial curve, poor fit] | activation [2]: inconclusive: -11.9% | ratio activity, negative = inhibition [3]: inconclusive: 15.4% [at 81.1 µM] | Potency [4]: inconclusive: 24.1 µM [rising, full curve] | activation [5]: inconclusive: -16% | Potency [8]: inconclusive: 60.5 µM [cytotoxic, single point] | activity change, negative = inhibition [9]: inconclusive: 8.19% | Potency [10]: inconclusive: 9.59 µM [rising, partial curve, poor fit] | activation [11]: inconclusive: 4.89% [at 81.1 µM] | Potency [12]: inconclusive: 54 µM [activator, single point] | Potency [7]: inconclusive: 605 nM [fluorescent, partial curve, poor fit]

Cc1ccc2c(Br)cc(Br)c(O)c2n1
Potency [1]: active: 13.3 µM | activation [2]: inconclusive: 12.7% | Potency [3]: inconclusive: 3.76 µM [activator] | Potency [4]: active: 23.7 µM | Potency [5]: inconclusive: 2.11 µM [falling, full curve] | Potency [13]: inconclusive: 22.8 µM | ratio activity, negative = inhibition [14]: inconclusive: -34.5% | Potency [7]: inactive
